Assay results from the RNAGym collection of RNA variant scans (doi:10.7554/elife.90254).
The source gives no read counts; variants with many changes may rest on few reads.

B1: LINE1-mini (parent)
chain: GGCAGAGCUCAACACAGCGUGGCAAAGUGGCUGUGGCUAGACUGCC

Variants of: B1
Experiment: self-cleavage, relative activity (ratio to wild type); higher = more cleavage; in vitro, sequencing; the parent is a self-cleaving ribozyme

Row | Variant | self-cleavage
1 | GGCAGAGCUCAACACAGCGAGGCAAAGUGGCUGCGUCUAGACUGCC [U20A U34C G36U] | 0.04
2 | GGCAGAGCUCAACACAGCGAAGCAACGUGGCUGUGGCGAGACUGAC [U20A G21A A26C U38G C45A] | 0.01
3 | GGCAGAGCUCAACACAGCUUGACAUAGUGACUGUGUCUAGACUGCC [G19U G22A A25U G30A G36U] | 0.15
4 | GGCAGAGCUCAACACAGCGCGGCUAAGUGGCUGUGGUUAGACUGCC [U20C A24U C37U] | 0.04
5 | GGCAGAGCUCAACACAGCUUGGGAAAGUGGGUCUGGCUAGAGUGCC [G19U C23G C31G G33C C42G] | 0.04
6 | GGCAGAGCUCAACACAGCGAGGCAAUGUGGCUGUGUCUCGACUGCC [U20A A26U G36U A39C] | 0.05
7 | GGCAGAGCUCAACACAGCGCUGCAAAGUGGCUGUGGCUAUACUGCC [U20C G21U G40U] | 0.09
8 | GGCAGAGCUCAACACAGCGAGGCAAAGUGGUUGUGGCAAGACUGCC [U20A C31U U38A] | 0.01
9 | GGCAGAGCUCAACACAGCUUGGCAAAGUGGCUGUGCGUUGACUGCC [G19U G36C C37G A39U] | 0.02
10 | GGCAGAGCUCAACACAGCGAGGCACAGUGGCUGUGGCUCGACUGCC [U20A A25C A39C] | 0.01
11 | GGCAGAGCUCAACACAGCGAGGCAAAGUGGCUGUGGGUUGACUGCC [U20A C37G A39U] | 0
12 | GGCAGAGCUCAACACAGCGAGGCAAAGUGGCUGACGCUAGACUGCC [U20A U34A G35C] | 0.01
13 | GGCAGAGCUCAACACAGCGAGGCAAAGUGGCUGUGUCUAAACUGCC [U20A G36U G40A] | 0.08
14 | GGCAGAGCUCAACACAGCUUGGCAAAGUGGCUGGGGCUGGACUUCC [G19U U34G A39G G44U] | 0.03
15 | GGCAGAGCUCAACACAGCUUGGCAAAGUGGUUGUGGCUAGACUACC [G19U C31U G44A] | 0.03
16 | GGCAGAGCUCAACACAGCGAUGCAAGGUGGCUGUGGCUAGACUGCC [U20A G21U A26G] | 0.75
17 | GGCAGAGCUCAACACAGCGAGGCUAAGCGGCUGUGGCUAGACUGCC [U20A A24U U28C] | 0.5
18 | GGCAGAGCUCAACACAGCUGAGCAAAGUGGCUGUUGCUUCACUGCC [G19U U20G G21A G35U A39U G40C] | 0.02
19 | GGCAGAGCUCAACACAGCUUGGCAAAGUGGCUAUGGCUAGAAUGCC [G19U G33A C42A] | 0.07

Row | Variant | self-cleavage
20 | GGCAGAGCUCAACACAGCGCGGCAAAGUGGGGGUGGCUGGACUGCC [U20C C31G U32G A39G] | 0.01
21 | GGCAGAGCUCAACACAGCUUGGCAAAGUGGCUGCGGCUAGACUGAC [G19U U34C C45A] | 0
22 | GGCAGAGCUCAACACAGCUUGGUAAAGUGGCUGUGGCUAGACUUCC [G19U C23U G44U] | 0.16
23 | GGCAGAGCUCAACACAGCGCUGCAAUGUGGCUGUGGCUAGACUGAC [U20C G21U A26U C45A] | 2.43
24 | GGCAGAGCUCAACACAGCUUGGCAAAGUGGCUGUGUCUAAACUGCC [G19U G36U G40A] | 0.06
25 | GGCAGAGCUCAACACAGCGAGGCAAAGUGGCUGUGGCUAGCCUGGC [U20A A41C C45G] | 0.03
26 | GGCAGAGCUCAACACAGCUUGGCAAAGUGGCUGGGGCUAGACUCCC [G19U U34G G44C] | 0.07
27 | GGCAGAGCUCAACACAGCUUGGUAAAGUGGCUGUGGCUAGUCUGCC [G19U C23U A41U] | 2.43
28 | GGCAGAGCUCAACACAGCUUGGCAAAGUGGCUGUGGUUCGACUGCC [G19U C37U A39C] | 0.01
29 | GGCAGAGCUCAACACAGCGAAGCAAAGUGGCUAGGGCUAGACUGCC [U20A G21A G33A U34G] | 0.07
30 | GGCAGAGCUCAACACAGCGAGGCAGAGUGGCGGUGGCUAGACUGCC [U20A A25G U32G] | 0.11
31 | GGCAGAGCUCAACACAGCGAGGCAAAGUGGCUGUUGCUAGCCUGCC [U20A G35U A41C] | 0.03
32 | GGCAGAGCUCAACACAGCUUGGCAAAUAGGCUGUAGCUAGACUGCC [G19U G27U U28A G35A] | 0.09
33 | GGCAGAGCUCAACACAGCUUCGCAAAGUGGCUGUGGCUUGACUGCC [G19U G21C A39U] | 0.17
34 | GGCAGAGCUCAACACAGCGAUGCAAAUUGGCUGUUGCUAGUCUGGC [U20A G21U G27U G35U A41U C45G] | 0.02
35 | GGCAGAGCUCAACACAGCGAGGCAAAGUGGCUGUGGGUAGACUGCU [U20A C37G C46U] | 0.02
36 | GGCAGAGCUCAACACAGCUUUGCAAAGUUGAUGUGCUUAGACUGCC [G19U G21U G29U C31A G36C C37U] | 0.01
37 | GGCAGAGCUCAACACAGCGAGGCAAAAUGGCUGUGGCUAUACUGCC [U20A G27A G40U] | 0.03
38 | GGCAGAGCUCAACACAGCGCCGCAAAGUAGCUGUGGCUAGACUGCA [U20C G21C G29A C46A] | 0.37

Row | Variant | self-cleavage
39 | GGCAGAGCUCAACACAGCUCGGCAAAGUGGCAAUCGCUAGACUGCC [G19U U20C U32A G33A G35C] | 0.01
40 | GGCAGAGCUCAACACAGCGAGGCAAAGUGGUUCUGGCUAGCCUGGC [U20A C31U G33C A41C C45G] | 0.06
41 | GGCAGAGCUCAACACAGCUUGGCAAAGUGGCUGAAGCUAGAGUGCC [G19U U34A G35A C42G] | 0.06
42 | GGCAGAGCUCAACACAGCGCGGGAAACUGAAUGUGGAUAAUCUGCG [U20C C23G G27C G30A C31A C37A G40A A41U C46G] | 0.03
43 | GGCAGAGCUCAACACAGCUUGGCAAAGUGGCCGUGGCUUGUCUGCC [G19U U32C A39U A41U] | 0.1
44 | GGCAGAGCUCAACACAGCGAGGAAAAUUGGCAGUGGCCAGACUGGC [U20A C23A G27U U32A U38C C45G] | 0.03
45 | GGCAGAGCUCAACACAGCUUGGCAAAGUGGGUGUGGCUAGACUGCG [G19U C31G C46G] | 0.02
46 | GGCAGAGCUCAACACAGCUUGGCAAAGUGGCUCUGGCAAGACUGCC [G19U G33C U38A] | 0.02
47 | GGCAGAGCUCAACACAGCUUCGCAUAGUGGCUUUGGCUAGACUGCC [G19U G21C A25U G33U] | 1.48
48 | GGCAGAGCUCAACACAGCGCGGCUGAGUGGCUGUGGCUAGACUGCC [U20C A24U A25G] | 1.26
49 | GGCAGAGCUCAACACAGCGCGGGAAAGCGGCUGUCGCUAAACUGCC [U20C C23G U28C G35C G40A] | 0.01
50 | GGCAGAGCUCAACACAGCUUGGGAAACUGGCUGUGGUUAGACUGCC [G19U C23G G27C C37U] | 0
51 | GGCAGAGCUCAACACAGCUUGGCAAAGUGGCAGUGGCGAGACUGCC [G19U U32A U38G] | 0
52 | GGCAGAGCUCAACACAGCUUGUCAAAGUGGCAGUGGCUAGACUGCC [G19U G22U U32A] | 0.15
53 | GGCAGAGCUCAACACAGCGAUGCAGAGUGGCUGUGGCUAGACUGUC [U20A G21U A25G C45U] | 0.21
54 | GGCAGAGCUCAACACAGCGCGGCAACGUGUCUGUGGCUAGACUGCC [U20C A26C G30U] | 0.1
55 | GGCAGAGCUCAACACAGCUUGGCAAAGUGGCUGUGACUAGACUGGC [G19U G36A C45G] | 0.03
56 | GGCAGAGCUCAACACAGCUUGGCAAAGUGGCUGGGACUAAACUGCC [G19U U34G G36A G40A] | 0.03
